Source: PubChem BioAssay AID1508624 (National Center for Advancing Translational Sciences (NCATS), 2021)
Out of some 48,000 compounds screened, about 120 (0.25%) were called active. Roughly 4% stayed inconclusive and do not appear here. The call rests on the fitted dose curve; in most records, active means well fitted activation curve with a large enough effect; inconclusive means small, poorly fitted or top-dose-only effect, or another doubt; inactive means no such curve, though single readings can be large or run the other way. This is one part of the list.

assay: Primary qHTS for Identification of Small Molecule Activators of Huntingtin-Antisense Promoter Activity; details: HEK293 HTT-AS promoter firefly luciferase reporter, 24 h; series mostly up to 57.5 µM; activity change, positive = activation: at the top concentration; further: nearly all actives have a fitted effect of over 55% in size
Method in brief: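 HEK293 cells carrying firefly luciferase reporters were seeded at 2,500 per well in Opti-MEM and cultured for 24 h. They were then treated with compounds at up to 57.5 uM final for 24 h at 37 degrees C before Dual-Glo luminescence readout.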

Structure (SMILES)	activity change, positive = activation
COc1ccc(S(=O)(=O)NCCc2sc(-c3ccccc3)nc2C)cc1F	inactive: -15.5%
Cc1ccc(Cl)cc1N1CCN(S(=O)(=O)c2ccc(-c3cnc(C4CC4)o3)cc2)CC1	inactive: -7.38%
CC(=O)c1ccc(NC(=O)c2cc(C3CC3)nc3c2c(C)nn3-c2ccc(C)cc2)cc1	inactive: -6.73%
CC(=O)Nc1cccc(NC(=O)Cc2csc(COc3cccc(C)c3)n2)c1	inactive: -17.4%
COc1ccccc1N1CCN(S(=O)(=O)c2ccc(-n3cnnn3)cc2)CC1	inactive: -23.7%
CCOC(=O)N1CCc2c(sc3c2c(=O)n(-c2ccc(CC)cc2)c(=O)n3Cc2cccc(OC)c2)C1	inactive: -12.4%
CCc1ccc(S(=O)(=O)N(C(C)=O)c2ccc3oc4c(c3c2)CCCC4)cc1	inactive: -38.2%
CCOc1ccc(C(=O)Nc2ccc3c(c2)N(C(C)=O)CCC3)cc1OCC	inactive: -69.4%
COc1ccc(NS(=O)(=O)c2ccc3c(c2)NC(=O)CCS3)c(OC)c1	inactive: -23.3%
CCC(C(=O)Nc1cc(C)ccc1OC)n1nnc(C(=O)OC)c1C(=O)OC (centres undefined)	inactive: -1.36%
CCOc1ccc(C2c3c(oc4cc(C)c(C)cc4c3=O)C(=O)N2c2ccccn2)cc1 (centres undefined)	inactive: 5.83%
Cc1ccc(-n2nc3c(N4CCC(C(=O)N(C)Cc5ccccc5)CC4)nnc(C)c3c2C)cc1	inactive: -3.77%
Cc1ccc(C)c(S(=O)(=O)n2nc(C)c(S(=O)(=O)N3CCC(C)CC3)c2C)c1	inactive: -6.04%
CC(=O)N1c2ccc(S(=O)(=O)NCC3CCC(C(=O)Nc4cc(C)cc(C)c4)CC3)cc2CC1C (centres undefined)	inactive: -34.8%
CC(=O)Nc1ccc(S(=O)(=O)Nc2nc3n(n2)C(c2ccccc2)C=C(c2ccc(Cl)cc2)N3)cc1 (centres undefined)	inactive: -4.12%
CN(C)c1ccc(CN(Cc2ccco2)C(=O)c2ccc(F)cc2)cc1	inactive: -20.2%
COc1ccccc1CNC(=O)CCC(=O)N1Cc2ccccc2Oc2ncccc21	inactive: 14.4%
COc1ccc(-c2nc3sc(CCNS(=O)(=O)c4c(C)cc(C)cc4C)c(C)n3n2)cc1	inactive: -12.6%
COc1cc(Cl)c(C)cc1Nc1nnc(-n2nc(C)cc2C)c2ccccc12	inactive: -9.31%
CCc1cccc(NC(=O)C(Cc2ccccc2)NS(=O)(=O)c2ccc3c(c2)c(=O)n(C)c(=O)n3C)c1 (centres undefined)	inactive: -22.7%

Structure (SMILES)	activity change, positive = activation
COc1cccc(N2CCN(C(=O)c3c4c(nc5ccccc35)C(=O)N(C3CCCCC3)C4)CC2)c1	inactive: -23.7%
Cc1cc(SCC(=O)Nc2nsc(-c3ccc(C(C)(C)C)cc3)n2)nc2ccccc12	inactive: -2.11%
N[C@H]1CN(c2c(F)cc3c(=O)c(C(=O)O)cn(C4C[C@@H]4F)c3c2Cl)CC12CC2 (some centres undefined)	inactive: -10.8%
COc1cccc(NC(=O)C2CCCN2S(=O)(=O)c2ccc3nc(-c4ccccc4)[nH]c3c2)c1 (centres undefined)	inactive: -36.2%
COc1ccc(OCc2nc(C#N)c(NCc3ccccc3Cl)o2)cc1	inactive: -18.2%
COc1ccc(CCC(=O)NCc2nc3cccnc3n2Cc2ccc(OC)cc2)cc1	inactive: -9.28%
CCOC(=O)c1c(NC(=O)CS(=O)(=O)c2ccc(Cl)cc2)sc2c1CCCC2	inactive: -3.62%
CNC(=O)C1CCN(C(=O)N2CC(C)Oc3ccc(C)cc32)CC1 (centres undefined)	inactive: -8.1%
CCOC(=O)c1c(NC(=O)c2cc(=O)c3c(C)cc(C)cc3o2)sc2c1CCC2	inactive: -4.04%
COc1ccc(NC(=O)C2CCN(c3nc(-c4ccc(OC)c(OC)c4)no3)CC2)cc1Cl	inactive: -7.83%
Cc1ccccc1CNC(=O)C1CCCN(c2nnc(-n3c(C)ccc3C)s2)C1 (centres undefined)	inactive: -13.1%
O=C(O)CCNC(=O)c1ccc(N=Nc2ccc(O)c(C(=O)O)c2)cc1	inactive
COc1ccccc1N(C)C(=O)Cn1c(=O)oc2cc(S(=O)(=O)N3CCCC3)ccc21	inactive: -11.8%
Cn1cc(S(=O)(=O)N2CCCCCC2)cc1C(=O)N1CCN(c2ccc(Cl)cc2)CC1	inactive: -32.6%
CCOC(=O)c1cc(-c2ccccc2)n(CCCC(=O)Nc2ccc(C)c(C)c2)c1C	inactive: -36.3%
Cn1c(=O)c2c(ncn2CC(=O)Nc2cc(Cl)cc(Cl)c2)n(C)c1=O	inactive: -45.5%
CCOC(=O)c1c(C)oc2ncnc(N3CCN(c4cccc(Cl)c4)CC3)c12	inactive: -40%
CCOC(=O)c1c(C)[nH]c(C)c1S(=O)(=O)N1CCN(c2ccccc2OC)CC1	inactive: -16.9%
COc1ccc(Cl)cc1NC(=O)CSc1nc2ccccc2nc1N1CCCCC1	inactive: -17.3%
COc1ccc(C2CC(=O)c3cnc4c(-c5ccccc5)c(C)nn4c3C2)c(OC)c1 (centres undefined)	inactive: 0.0523%

Structure (SMILES)	activity change, positive = activation
CCCCNC(=O)CCCn1c(=O)c2ccccc2n(Cc2ccc(Cl)cc2)c1=O	inactive: -33.3%
COc1ccc2c(c1)c1c(c(=O)n(-c3ccc(OC)c(OC)c3)c(=O)n1Cc1ccc(C)cc1)n2C	inactive: -9.06%
COc1ccccc1CNC(=O)CCCn1c(=O)c2cccn2c2ccccc21	inactive: -10.4%
CC(C)(C)OC(=O)N1CCC(c2c(C(=O)N3CCOCC3)cnn2-c2ccccc2Cl)CC1	inactive: -7.32%
CCn1c(C(=O)N(C2CC2)C2CC2)cc2c3c(ncn3C)c(Nc3cc(C)n(C)n3)nc21	inactive: -10.7%
CCc1c(C)nc2nncn2c1Nc1cccc(C)c1	inactive: -22.5%
COc1ccc(-c2nc(SCC(=O)Nc3cccc(C(C)=O)c3)n[nH]2)cc1	inactive: -10.2%
Fc1ccc(-c2noc3ncnc(N4CCCCC4)c23)cc1	inactive: -46.3%
O=C(Cc1ccccc1)Nc1cc(-c2nc3cc(Cl)ccc3o2)ccc1Cl	inactive: -3.1%
N#Cc1ccccc1S(=O)(=O)N1CCC(Oc2ccc(-n3cnnn3)cc2)CC1	inactive: -25.8%
COc1ccc(Cc2nc3ccc(C(=O)NCc4cc(Br)ccc4OC)cc3o2)cc1	inactive: -14.1%
CCCN1CCCC[C@H]1C(=O)Nc1c(C)cccc1C	inactive: -4.08%
COc1ccc(CCCc2nnc(SCC(=O)Nc3ccccc3F)o2)cc1C	inactive: 6.29% [at 11.5 µM, percent change from vehicle, -100% = no light]
COc1cc(C(=O)NCc2ccc(OCCN(C)C)cc2)cc(OC)c1OC	inactive: -15.6%
COc1cccc(N(Cc2nnc3n2CCCCC3)C(=O)Nc2cccc(Cl)c2)c1	inactive: -22.7%
CCOCCCNC(=O)CN1C(=O)c2c(c3ccccc3n2C)C1c1ccc(OC)cc1 (centres undefined)	inactive: -3.68%
O=C(Cc1csc2nc(-c3ccccc3)cn12)NCc1ccc(F)cc1	inactive: -6.46%
CCOc1ccccc1NC(=O)N1CCCn2nc(C)cc21	inactive: -11.2%
O=C(NCC(c1cccs1)S(=O)(=O)c1cccs1)c1ccc(C(F)(F)F)cc1 (centres undefined)	inactive: -34.9%
